The supplement of paper PMC8512760
Structures can show the parent of a compound that is named as a salt. Some of the results follow. Most values come without repeats; read them as rough.

Key:
Assay in all cases: cell viability relative to vehicle (% of vehicle); basal-like triple-negative breast cancer lines; higher = less cytotoxic
Conditions in all cases: 10 µM; 72 h
HCC-1143 = test system: HCC-1143
HCC-1187 = test system: HCC-1187
MDA-468 = test system: MDA-468
SUM-149 = test system: SUM-149
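Further: stably firefly luciferase-GFP labeled cells in 96-well plates, viability read as luciferase photon flux after d-luciferin addition, treated wells normalized to vehicle wells, single-dose high-throughput screen.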

Structure (SMILES) | cell viability (HCC-1143) | cell viability (HCC-1187) | cell viability (MDA-468) | cell viability (SUM-149)
Cc1ccc(-c2cc(C(F)(F)F)nn2-c2ccc(S(N)(=O)=O)cc2)cc1 [Celecoxib] | 84.7 | 89.4 | 79.5 | 97.4
CCOC(=O)C1=CC(OC(CC)CC)C(NC(C)=O)C(N)C1 (centres undefined) [Oseltamivir] | 89.9 | 94 | 87.2 | 131
O=C([O-])c1ccccc1O.[Na+] [Sodium salicylate] | 78.8 | 77.2 | 95.1 | 105
CCCNC(C)C(=O)Nc1ccccc1C (centres undefined) [Prilocaine] | 80.9 | 88.4 | 91.4 | 94.9
CN(C)c1ccc(O)c2c1CC1CC3C(N(C)C)C(=O)C(C(N)=O)=C(O)C3(O)C(=O)C1=C2O.Cl (centres undefined) [Minocycline HCl] | 116 | 107 | 81.9 | 48
CC(=O)O.CC(=O)O.CCC(C)CC(C)CCCCCCCCC(=O)NC1CC(O)C(NCCN)NC(=O)C2C(O)CCN2C(=O)C(C(O)CCN)NC(=O)C(C(O)C(O)c2ccc(O)cc2)NC(=O)C2CC(O)CN2C(=O)C(C(C)O)NC1=O (centres undefined) [Caspofungin Acetate] | 83.2 | 107 | 95.8 | 104
C#Cc1cccc(Nc2ncnc3cc(OCCOC)c(OCCOC)cc23)c1 [Erlotinib] | 85 | 69.4 | 60.1 | 88.7
COc1nc2ccc(Br)cc2cc1[C@@H](c1ccccc1)[C@@](O)(CCN(C)C)c1cccc2ccccc12 [Bedaquiline] | 106 | 91.8 | 113 | 109
Cc1cncc(CN2CCC(=C3c4ccc(Cl)cc4CCc4cccnc43)CC2)c1.O=C(O)C=CC(=O)O [Rupatadine Fumarate] | 81.5 | 79.9 | 110 | 113
O=C(O)C=Cc1ccc(Cn2ccnc2)cc1 [Ozagrel] | 86.5 | 89.7 | 85.8 | 106
OC(CCCN1CCCCC1)(c1ccccc1)c1ccccc1 [Diphenidol HCl] | 102 | 107 | 109 | 79.2
CC(O)C1C(=O)N2C(C(=O)O)=C(SC3CNC(CNS(N)(=O)=O)C3)C(C)C12.O (centres undefined) [Doripenem Hydrate] | 88 | 90.1 | 85.2 | 102
C=C[C@@H]1C[N@@]2CC[C@H]1C[C@@H]2[C@H](O)c1ccnc2ccc(OC)cc12 [Quinidine] | 77 | 83 | 119 | 115
Cn1c(=O)c2[nH]cnc2n(C)c1=O.Cn1c(=O)c2[nH]cnc2n(C)c1=O.NCCN [Aminophylline] | 85.8 | 83.3 | 74.5 | 86.7
CN(C)CCC(c1ccc(Cl)cc1)c1ccccn1.O=C(O)C=CC(=O)O (centres undefined) [Chlorpheniramine Maleate] | 82 | 95.7 | 98.6 | 97.2
CC(C)(OCc1nn(Cc2ccccc2)c2ccccc12)C(=O)O [Bindarit] | 84.7 | 82.8 | 93 | 121
CC1C(=O)OC2CC34C5CC(C(C)(C)C)C36C(OC(=O)C6O)OC4(C(=O)O5)C21O (centres undefined) [Ginkgolide A] | 99.8 | 92.7 | 124 | 113
CC(CCC(=O)O)C1CCC2C3CCC4CC(O)CCC4(C)C3CCC12C (centres undefined) [Lithocholic Acid] | 111 | 88.4 | 109 | 97.5
CC(C)(C)Cn1c(N)nc2ccc(-c3[nH]c(C(C)(C)C)nc3-c3ccc(F)cc3)nc21.CS(=O)(=O)O.CS(=O)(=O)O | 69.4 | 79.6 | 92.9 | 50.9
Nc1nc(=O)c2ncn(CCC(CO)CO)c2[nH]1 [Penciclovir] | 93.6 | 99.4 | 119 | 110
CCC1=CC2CN(C1)Cc1c([nH]c3ccccc13)C(C(=O)OC)(c1cc3c(cc1OC)N(C)C1C(O)(C(=O)OC)C(OC(C)=O)C4(CC)C=CCN5CCC31C54)C2 (centres undefined) [Vinorelbine] | 62.8 | 50 | 110 | 77.9
CCN(CC)CCOC(=O)C1(C2CCCCC2)CCCCC1.Cl [Dicyclomine HCl] | 86.9 | 92.1 | 103 | 96.7
CCOc1cc2ncc(C#N)c(Nc3ccc(OCc4ccccn4)c(Cl)c3)c2cc1NC(=O)C=CCN(C)C [Neratinib (HKI-272)] | 28.4 | 42.2 | 24.6 | 35
COc1ccccc1OCC(O)CN1CCN(CC(=O)Nc2c(C)cccc2C)CC1 (centres undefined) [Ranolazine] | 75.1 | 106 | 116 | 103
Br.CN(C)CCC[C@]1(c2ccc(F)cc2)OCc2cc(C#N)ccc21 [Citalopram hydrobromide] | 86.7 | 102 | 134 | 113
CC(C)(C)NCC(O)c1cc(O)cc(O)c1.CC(C)(C)NCC(O)c1cc(O)cc(O)c1.O=S(=O)(O)O (centres undefined) [Terbutaline Sulfate] | 97.2 | 115 | 164 | 77.9

Structure (SMILES) | cell viability (HCC-1143) | cell viability (HCC-1187) | cell viability (MDA-468) | cell viability (SUM-149)
CS(=O)(=O)O.OC(CCN1CCCCC1)(c1ccccc1)c1ccccc1 [Pridinol Methanesulfonate] | 78.5 | 114 | 116 | 90.3
NC(=O)C(CCC(F)(F)F)N(Cc1ccc(-c2ncon2)cc1F)S(=O)(=O)c1ccc(Cl)cc1 (centres undefined) | 76.3 | 91.5 | 103 | 111
CCCNC(=O)NS(=O)(=O)c1ccc(Cl)cc1 [Chlorpropamide] | 69.4 | 97.6 | 101 | 85.1
COc1cc(C(=O)NC2CCCNC2)cc(OC)c1OC (centres undefined) [Troxipide] | 70.7 | 85.7 | 106 | 124
CCOC(=O)C(CCc1ccccc1)NC1CCc2ccccc2N(CC(=O)O)C1=O.Cl (centres undefined) [Benazepril HCl] | 97.4 | 123 | 101 | 107
CC(C)NCC(O)COc1ccc(CCOCC2CC2)cc1.Cl (centres undefined) [Levobetaxolol HCl] | 74.2 | 90.5 | 109 | 102
COc1cc(C(C)=O)ccc1OCCCN1CCC(c2noc3cc(F)ccc23)CC1 [Iloperidone] | 88.2 | 74.5 | 88.9 | 125
CC(Oc1cc(-c2cnn(C3CCNCC3)c2)cnc1N)c1c(Cl)ccc(F)c1Cl [(R)-Crizotinib] | 49.7 | 30.2 | 23.2 | 35.3
COCC1=C(C(=O)OC(C)OC(=O)OC(C)C)N2C(=O)[C@@H](NC(=O)/C(=N\OC)c3csc(N)n3)[C@H]2SC1 (some centres undefined) [Cefpodoxime Proxetil] | 94 | 98.4 | 106 | 129
COc1cc(NS(=O)(=O)c2ccc(N)cc2)nc(OC)n1 [Sulfadimethoxine] | 88.2 | 102 | 129 | 121
O=c1sn(-c2cccc3ccccc23)c(=O)n1Cc1ccccc1 [Tideglusib] | 75.4 | 98.5 | 68 | 112
O=C(O)c1ccc2c(c1)nc(Nc1cccc(Cl)c1)c1ccncc12 [CX-4945 (Silmitasertib)] | 86.5 | 82.5 | 22.6 | 159
CC(=O)OCC(=O)C1(O)CCC2C3CCC4=CC(=O)C=CC4(C)C3C(O)CC21C (centres undefined) [Prednisolone Acetate] | 91.3 | 86.2 | 153 | 160
Nc1ccn(C2OC(CO)C(O)C2O)c(=O)n1 (centres undefined) [Cytidine] | 71.1 | 70.5 | 114 | 132
COc1ccc(C(=O)c2ccccc2)c(O)c1 [Oxybenzone] | 90.1 | 110 | 118 | 98.5
Cc1ncc([N+](=O)[O-])n1CC(O)CCl (centres undefined) [Ornidazole] | 76.3 | 97.4 | 101 | 95.3
CC[C@@H]1/C=C(\C)C[C@H](C)C[C@H](OC)[C@H]2O[C@@](O)(C(=O)C(=O)N3CCCC[C@H]3C(=O)O[C@H](/C(C)=C/[C@@H]3CC[C@H](Cl)[C@H](OC)C3)[C@H](C)[C@@H](O)CC1=O)[C@H](C)C[C@@H]2OC [Pimecrolimus] | 110 | 86.1 | 66.1 | 90.2
N#CC(=C1SCC(c2ccc(Cl)cc2Cl)S1)n1ccnc1 (centres undefined) [Luliconazole] | 99.5 | 111 | 83.5 | 131
CCCc1ncc(C[n+]2ccccc2C)c(N)n1.Cl.[Cl-] [Amprolium HCl] | 95.6 | 87.2 | 101 | 111
CCCC1CC(C(=O)NC(C(C)Cl)C2OC(SC)C(OP(=O)(O)O)C(O)C2O)N(C)C1 (centres undefined) [Clindamycin Phosphate] | 61.3 | 86.1 | 95 | 87.3
Nc1nc(=O)c2nc(CNc3ccc(C(=O)NC(CCC(=O)O)C(=O)O)cc3)cnc2[nH]1 (centres undefined) [Folic acid] | 101 | 93.3 | 120 | 103
CC(CN(C)C)CN1c2ccccc2CCc2ccccc21.O=C(O)/C=C\C(=O)O (centres undefined) [Trimipramine (maleate)] | 110 | 102 | 120 | 91.6
CCCc1nc(C(C)(C)O)c(C(=O)O)n1Cc1ccc(-c2ccccc2-c2nn[nH]n2)cc1 [Olmesartan] | 98.7 | 126 | 97.9 | 137
N[C@@H](Cc1cc(I)c(Oc2cc(I)c(O)c(I)c2)c(I)c1)C(=O)O [L-Thyroxine] | 76.8 | 110 | 90.6 | 86.5
CNC(=C[N+](=O)[O-])NCCSCc1ccc(CN(C)C)o1.Cl [Ranitidine] | 78.1 | 89.9 | 96.6 | 102
